The record followed here is a collection of fitness landscapes (doi:10.1016/j.celrep.2020.107928).

B1: Caulobacter ParB omega fusion; a variant is named by its letters at X, in order, B8GW30 (parent)
chain: MESVVVGEPGMSEGRRGLGRGLSALLGEVDAAPAQAPGEQLGGSREAPIEILQRNPDQPRRTFREEDLEDLSNSIREKGVLQPILVRPSPDTAGEYQIVAGERAWRAAQRAGLKTVPIMVRELDDLAVLEIGIIENVQRADLNVLEEALSYKVLMEKFERTQENIAQTIGKSXSHVANXMRLLXLPDEVQSYLVSGELTAXHARAIAAAADPVALAKQIIEGGLSVRETEALARKAPNLSAGKSKGGRPPRVKDTDTQALESDLSSVLGLDVSIDHRGSTGTLTITYATLEQLDDLCNRLTRGI

Whole data set: some 81,000 sequences, median “one-hybrid fitness for binding NBS DNA” near -0.1, cut for the highest 2% near 0.36. Some of the results follow. Bounds are passed on as bounds.

In this assay the parent is B1. Kind of assay: one-hybrid fitness for binding NBS DNA (the Noc-binding site; scaled: cognate 1, non-cognate 0); higher = stronger binding. The note with it: with NBS DNA site. Summed up:
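In E. coli USO, a HIS3 reporter with its site placed 19 bp from the promoter was used to select Caulobacter ParB variants randomised at four specificity codons. Growth lasted 48 hours at 37°C on histidine-free M9 containing 0.1 mM IPTG and 5 mM 3-AT. Fitness was taken as the log change in variant-to-wild-type read ratio from Illumina sequencing of pre- and post-selection plasmids, rescaled between the non-cognate and cognate sites.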
As for IDGS, the “one-hybrid fitness for binding NBS DNA” value was at most 0.2.
To QRQS belongs 0.688; to DVLC, at most 0.2.
To MNVG belongs at most 0.2.
Turning to QTAN, the “one-hybrid fitness for binding NBS DNA” value was 0.217.
Turning to PPNC, the “one-hybrid fitness for binding NBS DNA” value was at most 0.2.
MNYA: the “one-hybrid fitness for binding NBS DNA” value is at most 0.2.
To SCPN belongs at most 0.2; to IETY, at most 0.2; to QFTN, at most 0.2.
As for GWSG, the “one-hybrid fitness for binding NBS DNA” value is at most 0.2.
On to KRSC, for which the “one-hybrid fitness for binding NBS DNA” value is at most 0.2.
Consider YKHT, for which the “one-hybrid fitness for binding NBS DNA” value is at most 0.2.
To ASYT belongs at most 0.2; to PDVV, at most 0.2.
For KLYM the value was at most 0.2.
Consider TAFN, for which the “one-hybrid fitness for binding NBS DNA” value was at most 0.2.
Regarding RNYP, the “one-hybrid fitness for binding NBS DNA” value was at most 0.2.
To VHSM belongs at most 0.2; to ADDA, at most 0.2.
Consider QVTQ, for which the “one-hybrid fitness for binding NBS DNA” value was at most 0.2.
For NPRC the value was at most 0.2; for KHKY, at most 0.2; for NDWG, at most 0.2.
Take YMTV: the “one-hybrid fitness for binding NBS DNA” value was at most 0.2.
To YMCR belongs at most 0.2; to HGNV, at most 0.2.
Consider PLNM, for which the “one-hybrid fitness for binding NBS DNA” value is at most 0.2.
Take TESP: the “one-hybrid fitness for binding NBS DNA” value is at most 0.2.
Turning to FYES, the “one-hybrid fitness for binding NBS DNA” value was at most 0.2.
As for LVSY, the “one-hybrid fitness for binding NBS DNA” value is at most 0.2.
TLYR: the “one-hybrid fitness for binding NBS DNA” value was at most 0.2.
To WVTA belongs at most 0.2; to CSSN, at most 0.2.
For the variant LKCS, the “one-hybrid fitness for binding NBS DNA” value is at most 0.2.
To QPLC belongs at most 0.2; to EFNT, at most 0.2; to MAAM, at most 0.2.
Consider NSKV, for which the “one-hybrid fitness for binding NBS DNA” value is at most 0.2.
As for MHRF, the “one-hybrid fitness for binding NBS DNA” value was at most 0.2.
For SPRV the value was at most 0.2; for PCVV, at most 0.2; for APNV, at most 0.2.
As for LPPG, the “one-hybrid fitness for binding NBS DNA” value is at most 0.2.
To HFML belongs at most 0.2; to FVGS, at most 0.2.
For GDKS the value was at most 0.2; for EQMM, at most 0.2; for FKTC, at most 0.2.
To ETPN belongs at most 0.2; to GDWT, at most 0.2; to MELG, at most 0.2.
With STVH, the “one-hybrid fitness for binding NBS DNA” value is at most 0.2.
For KSGR, the “one-hybrid fitness for binding NBS DNA” value is at most 0.2.
For HHVE the value was at most 0.2; for CLIW, at most 0.2; for DAAS, at most 0.2.
To HASS belongs at most 0.2; to LLQM, at most 0.2.
On to IDRK, for which the “one-hybrid fitness for binding NBS DNA” value was at most 0.2.
Consider RWAR, for which the “one-hybrid fitness for binding NBS DNA” value was at most 0.2.
Take SNPW: the “one-hybrid fitness for binding NBS DNA” value is at most 0.2.
For TDCY the value was at most 0.2; for DGAT, at most 0.2.
For TIQG the value was at most 0.2; for TPLF, at most 0.2; for GTRI, at most 0.2.
In the case of YLTF, the “one-hybrid fitness for binding NBS DNA” value was at most 0.2.
Consider SRSS, for which the “one-hybrid fitness for binding NBS DNA” value was at most 0.2.
For HMRF the value was at most 0.2.
For LELG the value was at most 0.2; for VRLR, 0.209; for CMMT, at most 0.2.
HMFS: the “one-hybrid fitness for binding NBS DNA” value is at most 0.2.
To RRKL belongs 0.259.
As for FVPL, the “one-hybrid fitness for binding NBS DNA” value was at most 0.2.
To LCGR belongs at most 0.2.
For QMYT the value was 0.436; for RRDG, at most 0.2.
For the variant TSDF, the “one-hybrid fitness for binding NBS DNA” value is at most 0.2.
For IAVG the value was at most 0.2; for EEPE, at most 0.2; for IRTP, at most 0.2.
For WARN the value was at most 0.2.
